Measured values from the supplement of paper PMC3334620.
Over roughly 33,000 sequences, “E-score (-0.5 to 0.5)” has its median near -0.053; the highest 2% begin near 0.37. The list shows a part of the results.

These sequences were tested against Hap1 (UniProt P0CE41) (assay: PBM E-score (8-mer binding enrichment) (E-score (-0.5 to 0.5)); higher = stronger / more preferred TF binding; most listed sequences are background and not binding sites). Conditions: protein concentration: 200 nM; construct: GST-DNA-binding domain.
Sequence of UniProt P0CE41 (P0CE41 whole entry, the tested form may be a part): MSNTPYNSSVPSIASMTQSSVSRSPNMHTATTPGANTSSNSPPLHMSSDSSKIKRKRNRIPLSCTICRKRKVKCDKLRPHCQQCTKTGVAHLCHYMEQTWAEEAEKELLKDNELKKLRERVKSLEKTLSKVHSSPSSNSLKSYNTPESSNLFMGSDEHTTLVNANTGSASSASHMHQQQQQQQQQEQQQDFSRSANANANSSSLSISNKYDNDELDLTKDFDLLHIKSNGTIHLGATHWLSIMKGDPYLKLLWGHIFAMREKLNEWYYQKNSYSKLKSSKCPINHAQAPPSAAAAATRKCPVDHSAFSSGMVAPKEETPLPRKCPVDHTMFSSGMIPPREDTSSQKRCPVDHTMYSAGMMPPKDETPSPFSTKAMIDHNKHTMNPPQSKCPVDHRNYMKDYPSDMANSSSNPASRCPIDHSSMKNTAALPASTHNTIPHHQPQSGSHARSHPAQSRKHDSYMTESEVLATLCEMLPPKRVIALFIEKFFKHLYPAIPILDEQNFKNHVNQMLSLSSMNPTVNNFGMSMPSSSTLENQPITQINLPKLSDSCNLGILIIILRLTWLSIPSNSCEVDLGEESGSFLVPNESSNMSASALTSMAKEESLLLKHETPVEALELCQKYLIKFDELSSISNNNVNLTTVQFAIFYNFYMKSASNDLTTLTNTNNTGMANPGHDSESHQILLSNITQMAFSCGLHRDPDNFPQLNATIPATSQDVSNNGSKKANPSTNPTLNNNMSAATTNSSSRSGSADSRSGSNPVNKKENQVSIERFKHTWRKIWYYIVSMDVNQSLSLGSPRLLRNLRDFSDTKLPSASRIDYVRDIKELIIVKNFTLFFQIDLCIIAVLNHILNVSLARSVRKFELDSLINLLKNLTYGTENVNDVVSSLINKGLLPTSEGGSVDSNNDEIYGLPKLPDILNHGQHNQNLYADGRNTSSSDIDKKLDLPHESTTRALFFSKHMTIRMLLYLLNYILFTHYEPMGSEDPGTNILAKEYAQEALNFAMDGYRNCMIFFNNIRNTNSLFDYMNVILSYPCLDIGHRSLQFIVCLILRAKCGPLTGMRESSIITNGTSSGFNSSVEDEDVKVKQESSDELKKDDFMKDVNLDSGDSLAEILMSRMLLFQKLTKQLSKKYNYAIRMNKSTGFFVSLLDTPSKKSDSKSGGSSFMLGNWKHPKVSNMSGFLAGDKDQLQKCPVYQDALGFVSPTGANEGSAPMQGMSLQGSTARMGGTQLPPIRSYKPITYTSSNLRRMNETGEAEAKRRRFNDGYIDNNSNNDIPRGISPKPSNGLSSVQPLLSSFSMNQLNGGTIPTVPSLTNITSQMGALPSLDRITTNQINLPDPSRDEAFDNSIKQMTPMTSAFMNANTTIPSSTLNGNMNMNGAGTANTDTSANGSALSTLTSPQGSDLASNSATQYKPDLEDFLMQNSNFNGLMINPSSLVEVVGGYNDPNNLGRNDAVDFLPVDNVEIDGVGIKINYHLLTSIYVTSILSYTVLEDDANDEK
Procedure, shortened: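 Detection of bound protein used fluorescent anti-GST, with scans normalised by masliner. The proteins were GST-tagged yeast transcription factors applied at about 100-200 nM to universal all-10-mer Agilent arrays made double-stranded by primer extension. Each ungapped eight-base word, pooled with its reverse complement, was scored with an E-score from the Universal PBM Analysis Suite.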

Sequence	PBM E-score
CGTAGTCC	-0.0415
AAGGTGCA	-0.191
CTCATGCA	-0.111
TTATTAAA	-0.0798
GGCATGCC	0.102
ATTTTCTC	0.0203
AGTAGCCA	-0.307
AAAGACCT	-0.157
AGATTCGA	-0.117
GATTGATA	-0.178
CATGCTGC	-0.182
CTGATAGA	-0.112
ATAAGATG	-0.0565
CATGCTAG	-0.116
ATACCACC	0.122
CATATGTC	-0.027
CTCTATCC	0.0342
CTTGCTCC	0.08
GTCGACTA	-0.0778
GGTTCTAC	-0.0237
ACTTGGGA	-0.0657
AATTCAAG	-0.113
GCTCAAAA	-0.0646
TCAAACCA	0.0547
ACCAGCAG	-0.315

Sequence	PBM E-score
CACTCTAC	-0.106
AGCCAGGA	-0.178
ACATTCAT	-0.149
CGGTGGTC	0.219
ATCGGGCA	0.238
GGCTCACC	-0.0994
TGCAACAA	-0.119
GCGGAGCC	0.224
GTATTAGA	0.0422
ACCGATGC	0.174
CAAGAGCG	-0.11
GTAGACAC	0.107
CGGTGTGA	0.19
GAATGCGC	0.171
ATGACTAA	-0.169
CCTGGGGA	-0.353
ACAGGCAA	-0.148
CATAGGGC	-0.19
GACGGGTA	-0.0855
AGAGCGGC	0.0913
ATATGATC	-0.0739
ATTGCCAA	-0.182
GTGAAGCA	-0.181
GCCAAAGA	-0.165
AATGTGGA	-0.0844

Sequence	PBM E-score
CATTCAGG	-0.187
CGTTTACA	-0.145
CCATCTAG	-0.139
GCTGCTAC	-0.212
GATACTGA	-0.0701
CCCATTAC	-0.0355
GGGCCGAC	0.312
ACTCGGCG	0.259
CTTGCTAA	-0.204
ACCGTATG	-0.0565
AGTGAAGG	-0.187
ACCAAGAT	-0.118
CCACCAAA	-0.217
AGCCCCAT	-0.108
CCATGGGA	-0.0745
CATGAGAA	-0.103
CCTGGGTA	-0.138
CTTCCGTC	0.26
CCGGGGCA	0.312
CCATTCAC	-0.0244
AAAACCCT	-0.0696
CATGCGAG	-0.062
GCTGAGCC	-0.119
AGAAAATG	-0.091
AGCTTCAG	-0.214

Sequence	PBM E-score
AAGAAAGG	-0.175
ACAGGGAT	-0.16
ATCGAAGC	-0.146
ACCAACCA	-0.0133
CAGGGACC	-0.23
CGTCGTTC	0.119
CAGGTAAA	-0.0534
CACACCGA	0.191
GGTTGACA	-0.183
ACATAACT	0.0696
AGTTTGGG	-0.0621
AGCGGATC	0.278
AATCAGTG	-0.0747
AATGATGC	-0.0623
AGCAAAAC	-0.123
CCGTTAAG	0.275
GATCAGCC	-0.11
TGCAATAA	-0.0651
CGGATTGA	0.252
AACGTGAC	-0.109
CGGTAGAA	0.127
ATTGACGG	0.187
ACCCGCTA	0.209
AGAAGTAA	-0.0663
ATTCTGTA	-0.143

Sequence	PBM E-score
CGACACCC	0.0398
CGCATCTA	0.165
CATGTCCC	-0.054
AAATTATG	-0.0384
AAGTGGTC	0.0343
CTGCCATC	-0.0511
GAGGTACC	0.0324
CAGTTTAA	-0.0695
ACCTGGGA	-0.229
CCGCAGTA	-0.0533
GTAAGCAA	-0.00551
ACATTAGT	-0.105
TACGAGGA	-0.0483
AATACTTA	0.0213
CTTTTGGC	-0.0793
AATGCAAC	-0.176
TAATTCGA	-0.237
ATACTTAA	0.077
CTGACATC	0.0186
ATTTCAGC	-0.108
ATGCTTTA	-0.262
TCCTGCGA	0.0234
GGCGCGCA	0.142
CGGAGGTA	0.443
AGAGGTCG	0.0391

Sequence	PBM E-score
AGCTTTTC	0.057
CTTGTAAC	-0.0628
AGGTTACG	-0.0478
CTCGAGTA	-0.0996
CTATAAGA	-0.309
GCCCTTAC	-0.0266
ACCACCAG	-0.188
CAGGGGCC	-0.171
ACTCGAGA	-0.126
GCGGGCAC	0.198
CTCCTCAG	-0.24
TCCGTCGA	0.228
GTCATCGA	-0.19
TCGAAACA	-0.102
CTTCCAGC	-0.177
CCACAATC	0.0208
ATCATATA	-0.191
CTCCTATA	-0.327
CGTGCCTC	0.0396
GAACTGAA	-0.0389
TAAGGACA	-0.119
GCACTTAC	0.0278
AGTCCGGC	0.389
ACATAGAG	-0.254
ACGTCTGA	-0.00548

Sequence	PBM E-score
CAGGAAGA	-0.112
ACAATGCT	-0.227
CTGACACC	0.0376
ACGGACCA	0.344
TGGATTAA	-0.166
CTCCCGTA	-0.0597
AGCCGAAA	0.329
CGCTGACA	0.0128
GGCTTGCA	-0.00494
AATTTACC	0.0607
GTGCTAAC	0.161
CGACCGCA	0.192
AAGATGAT	-0.157
AATGACTA	-0.25
ATGTGGGG	-0.118
AGCTGTAG	-0.11
ACATTGGT	-0.144
GCCCCCAA	-0.422
GGTAGAAC	-0.243
ACTATAAG	-0.211
GAGGTGGC	-0.137
CAAAGAGG	-0.142
GATTCATA	-0.0307
AATCGACT	-0.185
CAATAGCC	-0.168

Sequence	PBM E-score
CTAGGAGC	-0.0766
CCTCGCTC	0.0166
TGGTTCAA	-0.107
ACGTGACT	-0.183
CCTAGCAA	-0.279
GACACGAC	-0.16
CTAAGGCA	-0.122
ACACGCGC	0.037
CGTCCCAC	0.0644
AATCGTAG	-0.15
CTCGAATA	-0.0719
GAGTTGCA	-0.0678
CCGCACAA	0.031
AAAGAATT	-0.0164
ATGCACCG	0.238
CACAGGTG	-0.245
CTGCCCAA	-0.0313
GTTGACAA	-0.0513
ATACGTGC	0.0178
AACTACCC	-0.044
AAGGTAGA	-0.187
AGATTTAA	0.0293
GAAAGAAA	0.00895
GCTACTGA	-0.0813
CCTGCAAA	-0.195

Sequence	PBM E-score
CAGTGACC	-0.0846
ACTCCCGA	0.2
AACGGTAA	0.186
GTAGGGTA	-0.0927
GTAAGCAC	-0.205
TACAAGAA	-0.0692
CTAGTCAC	-0.0372
CCGGGCTA	0.347
CAGGGTAG	-0.0609
AGTCTACG	-0.252
GGTCCACC	0.0592
AGCAACAC	-0.0467
AGCTATCA	-0.16
GTCCAGAC	-0.215
GTCGTAAA	0.0319
CCAACACC	-0.127
AAAGTGTG	-0.327
AAAACTCC	0.22
ATTGGGAG	-0.127
